# Assay results as given in the supplement of paper PMC8728848.
# The list shows a part of the results.
# What was measured:
# Experiment in all cases: glycan array binding signal (z-score within array); higher = stronger binding
# Conditions in all cases: glycan notation: IUPAC condensed, linker removed
# [1] = biological target: Gal(b1-3)[Fuc(a1-4)]GlcNAc
# Procedure, shortened: (§1)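 Negative Z-scores can be read as non-binding. The Z-score is calculated within each array and then averaged across arrays of one protein sequence at different concentrations or buffers and across linkers. Arrays, 3228 in all, were curated from the Consortium for Functional Glycomics database and kept only where the protein sequence was available.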
# [2] = biological target: Gal(b1-3)[Fuc(a1-4)]GlcNAc(b1-2)Man(a1-3)[Gal(b1-3)[Fuc(a1-4)]GlcNAc(b1-2)Man(a1-6)]Man(b1-4)GlcNAc(b1-4)GlcNAc
# Procedure, shortened: as §1
# [3] = biological target: Gal(b1-3)[Fuc(a1-4)]GlcNAc(b1-2)Man(a1-3)[Gal(b1-3)[Fuc(a1-4)]GlcNAc(b1-2)Man(a1-6)]Man(b1-4)GlcNAc(b1-4)[Fuc(a1-6)]GlcNAc
# Procedure, shortened: as §1
# [4] = biological target: Gal(b1-3)[Fuc(a1-4)]GlcNAc(b1-3)Gal(b1-3)[Fuc(a1-4)]GlcNAc
# Procedure, shortened: as §1
# [5] = biological target: Gal(b1-3)[Fuc(a1-4)]GlcNAc(b1-3)Gal(b1-4)GlcNAc
# Procedure, shortened: as §1
# [6] = biological target: Gal(b1-3)[Fuc(a1-4)]GlcNAc(b1-3)Gal(b1-4)[Fuc(a1-3)]GlcNAc
# Procedure, shortened: as §1
# [7] = biological target: Gal(b1-3)[GlcNAc(b1-6)]GalNAc
# Procedure, shortened: as §1
# [8] = biological target: Gal(b1-3)[Neu5Ac(a2-6)]GalNAc
# Procedure, shortened: as §1
# [9] = biological target: Gal(b1-3)[Neu5Ac(a2-6)]GlcNAc(b1-6)Gal(b1-4)Glc
# Procedure, shortened: as §1
# [10] = biological target: Gal(b1-3)[Neu5Ac(b2-6)]GalNAc
# Procedure, shortened: as §1
# [11] = biological target: Gal(b1-4)GalNAc(a1-3)[Fuc(a1-2)]Gal(b1-4)GlcNAc
# Procedure, shortened: as §1
# [12] = biological target: Gal(b1-4)GalNAc(b1-3)[Fuc(a1-2)]Gal(b1-4)GlcNAc
# Procedure, shortened: as §1
# Gal(b1-4)Glc = biological target: Gal(b1-4)Glc
# Procedure, shortened: as §1
# Gal(b1-4)Glc6S = biological target: Gal(b1-4)Glc6S
# Procedure, shortened: as §1
# Gal(b1-4)GlcNAc = biological target: Gal(b1-4)GlcNAc
# Procedure, shortened: as §1
# [13] = biological target: Gal(b1-4)GlcNAc(a1-6)Gal(b1-4)GlcNAc
# Procedure, shortened: as §1
# [14] = biological target: Gal(b1-4)GlcNAc(b1-2)Man(a1-3)Man(b1-4)GlcNAc(b1-4)GlcNAc
# Procedure, shortened: as §1
# [15] = biological target: Gal(b1-4)GlcNAc(b1-2)Man(a1-3)[Gal(b1-4)GlcNAc(b1-2)Man(a1-6)]Man(b1-4)GlcNAc(b1-4)GlcNAc
# Procedure, shortened: as §1
# [16] = biological target: Gal(b1-4)GlcNAc(b1-2)Man(a1-3)[Gal(b1-4)GlcNAc(b1-2)Man(a1-6)]Man(b1-4)GlcNAc(b1-4)[Fuc(a1-6)]GlcNAc
# Procedure, shortened: as §1
# [17] = biological target: Gal(b1-4)GlcNAc(b1-2)Man(a1-3)[Man(a1-6)]Man(b1-4)GlcNAc(b1-4)GlcNAc
# Procedure, shortened: as §1
# [18] = biological target: Gal(b1-4)GlcNAc(b1-2)Man(a1-6)Man(b1-4)GlcNAc(b1-4)GlcNAc
# Procedure, shortened: as §1
# [19] = biological target: Gal(b1-4)GlcNAc(b1-2)Man(a1-6)[Man(a1-3)]Man(b1-4)GlcNAc(b1-4)GlcNAc
# Procedure, shortened: as §1
# [20] = biological target: Gal(b1-4)GlcNAc(b1-2)[Gal(b1-4)GlcNAc(b1-4)]Man(a1-3)[Gal(b1-4)GlcNAc(b1-2)Man(a1-6)]Man(b1-4)GlcNAc(b1-4)GlcNAc
# Procedure, shortened: as §1
# [21] = biological target: Gal(b1-4)GlcNAc(b1-3)Gal(b1-3)GlcNAc
# Procedure, shortened: as §1
# [22] = biological target: Gal(b1-4)GlcNAc(b1-3)Gal(b1-4)Glc
# Procedure, shortened: as §1
# [23] = biological target: Gal(b1-4)GlcNAc(b1-3)Gal(b1-4)GlcNAc
# Procedure, shortened: as §1
# [24] = biological target: Gal(b1-4)GlcNAc(b1-3)Gal(b1-4)GlcNAc(b1-3)Gal(b1-4)GlcNAc
# Procedure, shortened: as §1
# [25] = biological target: Gal(b1-4)GlcNAc(b1-3)Gal(b1-4)[Fuc(a1-3)]GlcNAc(b1-3)Gal(b1-4)[Fuc(a1-3)]GlcNAc
# Procedure, shortened: as §1
# [26] = biological target: Gal(b1-4)GlcNAc(b1-3)GalNAc
# Procedure, shortened: as §1
# [27] = biological target: Gal(b1-4)GlcNAc(b1-3)[Gal(b1-4)GlcNAc(b1-6)]Gal(b1-4)GlcNAc
# Procedure, shortened: as §1
# [28] = biological target: Gal(b1-4)GlcNAc(b1-3)[GlcNAc(b1-6)]Gal(b1-4)GlcNAc
# Procedure, shortened: as §1
# [29] = biological target: Gal(b1-4)GlcNAc(b1-6)Gal(b1-4)GlcNAc
# Procedure, shortened: as §1
# [30] = biological target: Gal(b1-4)GlcNAc(b1-6)Gal(b1-4)GlcNAc(b1-6)GalNAc
# Procedure, shortened: as §1
# [31] = biological target: Gal(b1-4)GlcNAc(b1-6)GalNAc
# Procedure, shortened: as §1
# [32] = biological target: Gal(b1-4)GlcNAc(b1-6)[Gal(b1-3)]GalNAc
# Procedure, shortened: as §1
# Gal3S(b1-3)GalNAc = biological target: Gal3S(b1-3)GalNAc
# Procedure, shortened: as §1
# Gal3S(b1-3)GlcNAc = biological target: Gal3S(b1-3)GlcNAc
# Procedure, shortened: as §1
# [33] = biological target: Gal3S(b1-3)[Fuc(a1-4)]GlcNAc
# Procedure, shortened: as §1
# Gal3S(b1-4)Glc = biological target: Gal3S(b1-4)Glc
# Procedure, shortened: as §1
# Gal3S(b1-4)Glc6S = biological target: Gal3S(b1-4)Glc6S
# Procedure, shortened: as §1
# Gal3S(b1-4)GlcNAc = biological target: Gal3S(b1-4)GlcNAc
# Procedure, shortened: as §1
# Gal3S(b1-4)GlcNAc6S = biological target: Gal3S(b1-4)GlcNAc6S
# Procedure, shortened: as §1
# [34] = biological target: Gal3S(b1-4)[Fuc(a1-3)]Glc
# Procedure, shortened: as §1
# Gal3S4S(b1-4)GlcNAc = biological target: Gal3S4S(b1-4)GlcNAc
# Procedure, shortened: as §1
# Gal3S6S(b1-4)GlcNAc = biological target: Gal3S6S(b1-4)GlcNAc
# Procedure, shortened: as §1
binder,measurement,setting,value
"MRCL (Homo sapiens), NP_872425.1 (protein) ATKVHFPFHTCDLRIDGDCFMVSSEADTYYRARMKCQRKGGVLAQIKSQKVQDILAFYLGRLETTNEVTDSDFETRNFWIGLTYKTAKDSFRWATGEHQAFTSFAFGQPDNHGLVWLSAAMGFGNCVELQASAAFNWNNQRCKTRNRYICQFAQEHISRWGPGS",glycan array binding signal (z-score),[1],0.23
same,glycan array binding signal (z-score),[2],-0.876
same,glycan array binding signal (z-score),[3],-0.763
same,glycan array binding signal (z-score),[4],-0.379
same,glycan array binding signal (z-score),[5],-0.527
same,glycan array binding signal (z-score),[6],-0.186
same,glycan array binding signal (z-score),[7],0.917
same,glycan array binding signal (z-score),[8],-0.262
same,glycan array binding signal (z-score),[9],-0.561
same,glycan array binding signal (z-score),[10],0.533
same,glycan array binding signal (z-score),[11],-0.523
same,glycan array binding signal (z-score),[12],0.167
same,glycan array binding signal (z-score),Gal(b1-4)Glc,-0.431
same,glycan array binding signal (z-score),Gal(b1-4)Glc6S,-0.511
same,glycan array binding signal (z-score),Gal(b1-4)GlcNAc,0.322
same,glycan array binding signal (z-score),[13],-0.615
same,glycan array binding signal (z-score),[14],-0.531
same,glycan array binding signal (z-score),[15],-0.358
same,glycan array binding signal (z-score),[16],-0.383
same,glycan array binding signal (z-score),[17],-0.619
same,glycan array binding signal (z-score),[18],2.08
same,glycan array binding signal (z-score),[19],-0.087
same,glycan array binding signal (z-score),[20],-0.506
same,glycan array binding signal (z-score),[21],1.06
same,glycan array binding signal (z-score),[22],-0.145
same,glycan array binding signal (z-score),[23],-0.669
same,glycan array binding signal (z-score),[24],4.88
same,glycan array binding signal (z-score),[25],-0.536
same,glycan array binding signal (z-score),[26],-0.247
same,glycan array binding signal (z-score),[27],-0.549
same,glycan array binding signal (z-score),[28],4.12
same,glycan array binding signal (z-score),[29],-0.021
same,glycan array binding signal (z-score),[30],-0.514
same,glycan array binding signal (z-score),[31],-0.516
same,glycan array binding signal (z-score),[32],0.492
same,glycan array binding signal (z-score),Gal3S(b1-3)GalNAc,-0.619
same,glycan array binding signal (z-score),Gal3S(b1-3)GlcNAc,-0.328
same,glycan array binding signal (z-score),[33],-0.239
same,glycan array binding signal (z-score),Gal3S(b1-4)Glc,-0.458
same,glycan array binding signal (z-score),Gal3S(b1-4)Glc6S,0.598
same,glycan array binding signal (z-score),Gal3S(b1-4)GlcNAc,-0.517
same,glycan array binding signal (z-score),Gal3S(b1-4)GlcNAc6S,0.317
same,glycan array binding signal (z-score),[34],2.4
same,glycan array binding signal (z-score),Gal3S4S(b1-4)GlcNAc,-0.823
same,glycan array binding signal (z-score),Gal3S6S(b1-4)GlcNAc,-0.693
